Laboratory results: the antibiotic and cytotoxicity screens of Wong et al. (2023)
This is one part of the list.

These compounds were tested on S. aureus RN4220 (assay: growth inhibition call (relative growth <= 0.2)). Settings: 50 µM.

Growth inhibition call, inactive:
O[C@@H]1[C@@H](O)[C@H](Nc2ccccc2)OC[C@H]1O, C[C@@H]1CN([C@@H](C)CO)S(=O)(=O)c2ccc(C#CC3CC3)cc2O[C@@H]1CN(C)C(=O)Cc1ccncc1, C[C@@H]1CN([C@H](C)CO)C(=O)c2cc(NC(=O)CCC(F)(F)F)ccc2O[C@@H](C)CCCCO[C@@H]1CN(C)C(=O)CCC(F)(F)F, C[C@H](CO)N1C[C@H](C)[C@H](CN(C)C(=O)C2CCC2)Oc2cc(-c3ccc(C(=O)N(C)C)cc3)ccc2S1(=O)=O, C/C=C/c1ccc2c(c1)O[C@@H](CN(C)S(=O)(=O)c1ccc(F)cc1)[C@@H](C)CN([C@H](C)CO)S2(=O)=O, O=C(C[C@H]1C[C@@H]2c3cc(NC(=O)C4CCOCC4)ccc3O[C@@H]2[C@H](CO)O1)NCCN1CCCCC1, C[C@@H]1CN([C@H](C)CO)C(=O)c2cc(NC(=O)Nc3cccc4ccccc34)ccc2O[C@@H](C)CCCCO[C@H]1CN(C)S(=O)(=O)c1ccccc1, COc1ccc(CN(C)C[C@H]2OCCCC[C@H](C)Oc3ccc(NS(=O)(=O)c4ccc(F)cc4)cc3C(=O)N([C@H](C)CO)C[C@@H]2C)cc1, C[C@@H]1CN([C@H](C)CO)C(=O)Cc2cc(NC(=O)Nc3cccc4ccccc34)ccc2O[C@@H]1CN(C)Cc1ccc(Oc2ccccc2)cc1, Cc1noc(C)c1NC(=O)N(C)C[C@H]1Oc2ccc(NC(=O)CCCN(C)C)cc2C(=O)N([C@H](C)CO)C[C@H]1C, COCCOC(=O)N1C(=O)[C@@]2(c3ccccc31)[C@H](c1ccc(OCCO)cc1)N1[C@H](c3ccccc3)[C@H](c3ccccc3)OC(=O)[C@H]1[C@@H]2C(=O)Nc1nc2ccccc2s1, CC(=O)N1CCO[C@H]2CCN(C(=O)c3cn(C)cn3)C[C@H]21, C=CCOC(=O)[C@H]1[C@@H]2C(=O)O[C@@H](c3ccccc3)[C@@H](c3ccccc3)N2[C@@H](c2ccc(OCCOC(=O)[C@@H]3C[C@@H]4C(=O)N[C@@H](CCCC[N+](C)(C)C)C(=O)N4[C@@H]3c3cccc(OCCO)c3)cc2)[C@]12C(=O)Nc1ccc(I)cc12, C[C@@H]1CN([C@H](C)CO)C(=O)Cc2cc(NS(=O)(=O)c3cccs3)ccc2O[C@@H]1CN(C)CC1CC1, C[C@H]1CN([C@@H](C)CO)C(=O)Cc2cc(NC(=O)Nc3ccc(C(F)(F)F)cc3)ccc2O[C@H]1CN(C)S(=O)(=O)c1ccc(Cl)cc1, C[C@@H]1O[C@@H](O[C@@H]2[C@@H](O)[C@H](O)[C@@H](CO)O[C@H]2c2c(O)cc3oc(-c4ccc(O)cc4)cc(=O)c3c2O)[C@H](O)[C@H](O)[C@H]1O, O=C(C[C@H]1C[C@H]2c3cc(NC(=O)NC4CCCC4)ccc3O[C@H]2[C@@H](CO)O1)NCc1ccc2c(c1)OCO2, C[C@@H]1CN([C@@H](C)CO)S(=O)(=O)c2ccc(-c3cccnc3)cc2O[C@H]1CN(C)C(=O)NC1CCCC1, COc1ccc(S(=O)(=O)N(C)C[C@H]2Oc3ccc(NC(=O)Nc4c(C)noc4C)cc3CC(=O)N([C@@H](C)CO)C[C@@H]2C)cc1, C[C@@H]1CN([C@H](C)CO)C(=O)Cc2cc(NC(=O)Cn3cnnn3)ccc2O[C@H]1CN(C)Cc1ccc(-c2ccccc2)cc1, CN1C(=O)c2cc(NC(=O)c3cnccn3)ccc2OC[C@H]2O[C@@H](CC(=O)N[C@@H]3CCN(Cc4ccccc4)C3)CC[C@H]21, C[C@@H]1CCCCO[C@H](CN(C)S(=O)(=O)c2cccs2)[C@@H](C)CN([C@H](C)CO)C(=O)c2cc(NC(=O)c3ccccc3)ccc2O1, C[C@@H]1CCCCO[C@H](CN(C)S(=O)(=O)c2ccc(Cl)cc2)[C@@H](C)CN([C@@H](C)CO)C(=O)c2cc(NC(=O)Nc3ccc(C(F)(F)F)cc3)ccc2O1, CS(=O)(=O)N1C[C@H](O)COC[C@@H]2O[C@@H](CC(=O)NCCc3ccncc3)CC[C@H]21, CS(=O)(=O)Nc1ccc([N+](=O)[O-])cc1Oc1ccccc1, CC(=O)n1cc([C@@H]2C=C(C(=O)N3CCOCC3)O[C@H](OCCCCOC(=O)NCCCCCC(=O)NO)C2)c2ccccc21, C[C@@H]1CN([C@H](C)CO)C(=O)c2cc(NS(=O)(=O)c3ccc(Cl)cc3)ccc2O[C@H]1CN(C)Cc1ccc(-c2ccccc2)cc1, C[C@@H]1CN([C@H](C)CO)C(=O)c2cc(NC(=O)c3ccncc3)ccc2O[C@@H]1CN(C)Cc1ccncc1, C[C@@H]1CN([C@H](C)CO)C(=O)c2cc(NC(=O)Cc3ccccc3)ccc2O[C@@H]1CN(C)Cc1ccc(C(F)(F)F)cc1
